Laboratory results taken from US20250171518A1, “METHODS FOR PREPARING CELLS FOR ADOPTIVE T CELL THERAPY” (City of Hope, priority 2015, published 2025).

Test system: CD8+ CD19CAR T cells
Test: 107a degranulation assay / effector function after co-culture with CD19+ LCL cells
Format: cell-based, human
Details: expanded 21 days with or without Akt inhibitor; overnight co-culture with CD19+ LCL; treated versus untreated cells; FIG. 2

`O=c1[nH]c2ccccc2n1C1CCN(Cc2ccc(-c3nc4cc5[nH]cnc5cc4nc3-c3ccccc3)cc2)CC1` [Akt inhibitor VIII, 1,3-dihydro-1-[1-[[4-(6-phenyl-1H-imidazo[4,5-g]quinoxalin-7-yl)phenyl]methyl]-4-piperidinyl]-2H-benzimidazol-2-one] was tested, and the “interferon gamma production and CD107a expression upon CD19 antigen stimulation” value was “equivalent levels”.
